Source: the supplement of paper PMC11417369
Some of the results follow.

system: PF3D7_0420300 AP2 domain 1 (GST-tagged); assay: gcPBM binding intensity (ln(normalized median fluorescence intensity)); higher = stronger DNA binding
Outline: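 The highest Masliner-normalised natural-log median intensity across replicate spots of either probe orientation is reported as binding intensity. GST-tagged P. falciparum DNA-binding domains expressed in E. coli were applied for 1 h to an Agilent 4 × 180k array of primer-extended double-stranded 36-bp intergenic genomic probes plus negative controls, and bound protein was detected with Alexa488 anti-GST antibody and scanned at 488 nm.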

Sequence | gcPBM binding intensity (ln)
TATATGTTTTTATGTACACACTTTTAACCTAAGAAA [CACACA_site4769] | 9.32
TTCTTGTATATATTTTGTACATATATACCATTTTAG [XGTACX_site2409] | 9.55
AAATGTATAGGAATAATAATAAAAAAAAAAAAAAAT [CACACA_negctrl_site1793] | 9.49
ATCATTCCACTTTTCACACATATCTCTATTTCTATC [CACACA_site4723] | 9.74
AAAAAAAATAAAATAATAAAAATTATGAATATATAT [CACACA_negctrl_site280] | 9.29
TGGAGGTCAGTTCACAGTACCCAGTAACTCTACGGA [XGTACX_site2549] | 8.96
ATAGGTAATAATAATACACACGGTGAAATATAGATG [CACACA_site9336] | 9.82
AATAAAATGCAATACATTTTGTTATATAATGTTGTT [CACACA_negctrl_site1525] | 9.22
CACAATGTAGTGTATAAATACAATAAAAGGTTGTAT [CACACA_negctrl_site700] | 9.4
ATATTGTAAGTAAACACACACACATATATCTGTATA [CACACA_site4541] | 9.86
TAAAGTGTAAAATTCACACACATATATATATATATA [CACACA_site4883] | 9.32
ATTTTTTTTATTATTACACACATATAATAAAAAAAT [CACACA_site1802] | 9.27
ATTTTTTTTTTCTTTTTTTTTTGTTTTTCTCCTTTT [CACACA_negctrl_site1182] | 9.5
GTATAATTTATTGAACGTACACATATATATATGTAT [XGTACX_site1395] | 9.39
GTAAAATTTACATAGAGTACTTATATTTTTTTCTGC [XGTACX_site3414] | 8.96
CACAAATATACAAATACACACAAATATACAAATACA [CACACA_site2385] | 10
CAGTTTACTAATATTGCACACGAATATGAAAAAGAG [CACACA_site8941] | 9.45
TTATCATTTGCCATTGTGCACTTATATGCTCACATT | 9.32
TTTTTTTTTCAAGAGGTGCGTGTATTTTAACAAAAA | 9.03
AAAAAAAATTATGAAGTGCATTAGTGAATTTGATTG | 9.24
TTTTTCACACTTCAAAAGTGTCAACCTTCTATTCTC [TGCATGCA_negctrl_site489] | 9.15
TTGTCTACAAAAATGTGCTTCTAATCATACGACTTG [CACACA_negctrl_site46] | 8.97
TACATATATTATTGCACACATATAAAATACCCCCAA [CACACA_site3895] | 9.82
TATATTTTAATTTGAAGTACTAATATTTATTTATAT [XGTACX_site7458] | 8.96
TATAACCATATATACACACACATATAAATATAAATA [CACACA_site7089] | 9.78
